Experimental data taken from PubChem BioAssay AID1768 (National Center for Advancing Translational Sciences (NCATS), 2009).
The campaign covered roughly 270,000 compounds. About 620 (0.23%) were called active. Inconclusive means that the source gave no clear call. Such entries were picked first, then a sample of the others. Calls follow the shape of the dose curve; as a rule, active = well fitted inhibition curve with a large enough effect in the polarisation, with a control signal flat (not every such curve was filed as active); inconclusive = small, poorly fitted or top-dose-only effect, or effect the other way, or a change in a side signal; inactive = no such curve, though single readings can be large or run the other way; the % refers to the polarisation. Potencies beside an inconclusive call are fits to weak or partial responses and may not hold up. “Side channel” marks fits to a control or component signal instead of the main read-out.

These compounds were tested against Menin (Homo sapiens) (UniProt O00255) (assay: qHTS Assay for Inhibitors Targeting the Menin-MLL Interaction in MLL Related Leukemias: Competition With Texas Red Labeled MLL-derived Mutant Peptide). Conditions: fluorescence polarization; FP activity change, negative = inhibition: at 61.6 µM (top of the series).
UniProt O00255, sequence (O00255 whole entry, looked up): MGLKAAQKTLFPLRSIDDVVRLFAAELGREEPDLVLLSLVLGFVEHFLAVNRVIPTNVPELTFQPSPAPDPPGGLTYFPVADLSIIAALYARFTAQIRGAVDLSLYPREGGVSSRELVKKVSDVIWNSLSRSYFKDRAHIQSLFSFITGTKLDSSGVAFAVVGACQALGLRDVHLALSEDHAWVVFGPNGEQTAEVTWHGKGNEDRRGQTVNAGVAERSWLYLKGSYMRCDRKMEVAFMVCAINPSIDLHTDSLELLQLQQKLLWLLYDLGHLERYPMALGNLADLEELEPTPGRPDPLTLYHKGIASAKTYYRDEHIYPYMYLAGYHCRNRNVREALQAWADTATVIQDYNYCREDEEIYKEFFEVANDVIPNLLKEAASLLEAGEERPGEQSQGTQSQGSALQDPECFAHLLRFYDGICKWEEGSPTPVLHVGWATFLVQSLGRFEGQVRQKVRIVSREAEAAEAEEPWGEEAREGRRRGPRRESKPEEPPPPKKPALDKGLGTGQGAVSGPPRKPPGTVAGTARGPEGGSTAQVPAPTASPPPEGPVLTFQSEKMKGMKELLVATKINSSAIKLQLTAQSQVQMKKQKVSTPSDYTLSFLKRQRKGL

For FP activity change, negative = inhibition in this document: % of control where 0% means no effect.
Potency is read from the fitted curve at half-maximal effect; tags tell the direction and shape of the fitted curve or compound fluorescence and quenching.

Row | SMILES | Potency | FP activity change, negative = inhibition
1 | Cn1c(C(=O)N2CCCC(C(=O)NCCCSC3CCCCC3)C2)cc2sccc21 (configuration not stated) | inconclusive: 15.8 µM [fluorescent, side channel, partial curve] | –
2 | OCCNc1ncnc2c1c(-c1ccccc1)c(-c1ccccc1)n2Cc1ccco1 | inconclusive: 12.6 µM [fluorescent, side channel, partial curve] | –
3 | O=C(CC(Nc1ccc(F)cc1)C(=O)O)c1ccccc1 (configuration not stated) | inconclusive: 15.8 µM [inhibitor, partial curve] | –
4 | Cc1c(C(=O)O)sc2nc(-c3cccs3)cc(C(F)(F)F)c12 | inconclusive: 28.2 µM [quencher, side channel, single point] | –
5 | O=C(Nc1nccs1)c1ccc(COc2ccccc2Cl)o1 | inconclusive: 8.91 µM [quencher, side channel, full curve] | –
6 | COCCN1C(=O)/C(=C/c2ccc(N3CCCC3)cc2)SC1=S | inconclusive: 3.98 µM [fluorescent, side channel, full curve] | –
7 | CCOc1ccccc1OCCCC(=O)NC1CCCc2ccccc21 (configuration not stated) | inconclusive: 22.4 µM [fluorescent, side channel, partial curve] | –
8 | O=C(CSc1nnc(-c2cccnc2)n1Cc1ccco1)c1ccc(Cl)c(Cl)c1 | inconclusive: 12.6 µM [quencher, side channel, partial curve] | –
9 | Cc1nn(C)c(C)c1N1C(=O)c2cccc3c(N)ccc(c23)C1=O | – | inactive: -7.16%
10 | CCOC(=O)CCCNC(=O)N1CCc2nc(-c3ccccc3)c3c(c2C1)CO[C@@H](C)C3 | – | inactive: -10.1% [at 11.7 µM]
11 | COCCn1c(C2CCCCC2)nc2sc3ccccc3c(=O)c2c1=O | inconclusive: 3.98 µM [fluorescent, side channel, single point] | –
12 | CCOC(=O)c1ccc(Nc2nc(N)c3cc(OC)c(OC)cc3n2)cc1 | inconclusive: 12.6 µM [quencher, side channel, partial curve] | –
13 | Oc1ccc(O)c2c1C1c3ccccc3C2c2ccccc21 | inconclusive: 17.8 µM [quencher, side channel, partial curve] | –
14 | CCOCCCNC(=O)c1ccc2c(c1)ncn2-c1ccc(C)cc1C | inconclusive: 20 µM [inhibitor, partial curve] | –
15 | N#C/C(=C/c1ccc(N2CCCCC2)o1)C(=O)Nc1ccc(Cl)cc1 | inconclusive: 11.2 µM [quencher, side channel, partial curve] | –
16 | O=C(CNc1ccc2c(c1)OCO2)N/N=C\c1cn(Cc2ccc(F)cc2)c2ccccc12 | inconclusive: 3.16 µM [quencher, side channel, full curve] | –
17 | Cc1ccc(S(=O)(=O)Nc2nc3ccc(S(=O)(=O)N4CCCC4)cc3s2)cc1 | inconclusive: 39.8 µM [quencher, side channel, single point] | –
18 | CCc1nnc(NS(=O)(=O)c2ccc(N=Cc3c(C)[nH]n(-c4cccc(Cl)c4)c3=O)cc2)s1 | inconclusive: 5.62 µM [quencher, side channel, partial curve] | –
19 | Cc1cc(N/N=C/c2ccc(O)cc2O)nc(-n2nc(C)cc2C)n1 | inconclusive: 25.1 µM [quencher, side channel, single point] | –

Row | SMILES | Potency | FP activity change, negative = inhibition
20 | CCN1C(=O)C(CC(=O)Nc2ccc(OC)cc2)N(CCc2ccccc2)C1=S (configuration not stated) | inconclusive: 28.2 µM [quencher, side channel, single point] | –
21 | N#CC1(C#N)C(c2ccccc2)OC23CCCCC2C1(C#N)C(=N)O3 (configuration not stated) | – | inactive: -10.2%
22 | O=C(Nc1ccc2c(c1)OCO2)C1CCN(C(=O)c2ccc(Cl)cc2)CC1 | inconclusive: 39.8 µM [inhibitor, single point] | –
23 | CC(C)(C)c1ccc(OCC(=O)Nc2ccc(C(=O)Nc3ccccc3C(=O)O)cc2)cc1 | inconclusive: 17.8 µM [quencher, side channel, partial curve] | –
24 | CC(OC(=O)CNC(=O)C12CC3CC(CC(C3)C1)C2)C(=O)Nc1ccc(N2CCOCC2)cc1 (configuration not stated) | inconclusive: 25.1 µM [fluorescent, side channel, single point] | –
25 | Clc1nnc(N/N=C/c2ccccc2)c2ccccc12 | inconclusive: 28.2 µM [quencher, side channel, single point] | –
26 | COc1ccc(Nc2nc(N)c([N+](=O)[O-])c(NC3CCCCC3)n2)cc1 | inconclusive: 12.6 µM [quencher, partial curve] | –
27 | COc1cccc(-c2cc(C(=O)Nc3ccccc3SC)no2)c1 | inconclusive: 7.94 µM [quencher, side channel, full curve] | –
28 | O=C(NC(=S)Nc1ccc(C(F)(F)F)cc1)c1csnn1 | inconclusive: 31.6 µM [quencher, side channel, single point] | –
29 | COC(=O)C1=C(C(=O)OC)SC(=C2C(=S)C(C)(C)N(C(=O)C3CC3)c3ccccc32)S1 | inconclusive: 35.5 µM [quencher, side channel, single point] | –
30 | CC(=O)c1ccccc1OCCOCCOCCOc1ccccc1C(C)=O | – | inactive: 4.77%
31 | CCOC(=O)C1CCN(c2cc3c(cc2NC(=O)c2ccc(OC)c(OC)c2)n(C)c(=O)n3C)CC1 | inconclusive: 1.58 µM [inhibitor, full curve, poor fit] | –
32 | Cc1ccc(C2=C(O)c3ccccc3C(=O)C2=O)cc1 | inconclusive: 11.2 µM [quencher, side channel, partial curve] | –
33 | O=c1[nH]n(-c2ccc([N+](=O)[O-])cc2)c(=O)c2ccccc12 | active: 31.6 µM | –
34 | C=CCOC(=O)/C(=C/c1ccco1)NC(=O)/C=C/c1ccccc1 | inconclusive: 39.8 µM [quencher, side channel, single point] | –
35 | Cc1nnc(NC(=O)C2c3ccccc3Oc3ccccc32)s1 | – | inactive: -0.658%
36 | Oc1ccc(CN2CCN(Cc3ccccc3)CC2)c2cccnc12 | – | inactive: 9.84%
37 | COC(=O)Cc1[nH]nc2c1C(C1C=CCCC1)C(C#N)=C(N)O2 (configuration not stated) | – | inactive: 7.91%
38 | Cc1noc(NS(=O)(=O)c2ccc(NC(=O)COc3ccc(Cl)cc3Cl)cc2)c1C | inconclusive: 20 µM [quencher, side channel, partial curve] | –

Row | SMILES | Potency | FP activity change, negative = inhibition
39 | O=c1c(-c2ccc3c(c2)OCCO3)coc2cc(O)cc(O)c12 | inconclusive: 22.4 µM [quencher, side channel, partial curve] | –
40 | COc1ccc2c(CCNC(=O)/C=C/c3ccc(OC)c(OC)c3)c[nH]c2c1 | inconclusive: 22.4 µM [quencher, side channel, single point] | –
41 | C=CCSc1nc(N)c(C#N)c(-c2ccc(C)cc2)c1C#N | inconclusive: 25.1 µM [quencher, side channel, partial curve] | –
42 | CSc1ccc(C(=O)C2CCCN(C(=O)CCCn3cncn3)C2)cc1 (configuration not stated) | inconclusive: 39.8 µM [fluorescent, side channel, single point] | –
43 | CC(=O)OC1CC(C)(C)N(OC(=O)CCCN2C(=O)c3ccccc3C2=O)C(C)(C)C1 | inconclusive: 15.8 µM [inhibitor, partial curve] | –
44 | Cc1ccc(Cl)cc1Nc1nc(-c2sc(NC(=O)c3cccc(Cl)c3)nc2C)cs1 | inconclusive: 3.55 µM [quencher, side channel, full curve] | –
45 | O=C(CN1CCN(Cc2ccc3c(c2)OCO3)CC1)Nc1cc(S(=O)(=O)N2CCCC2)ccc1Cl | inconclusive: 10 µM [fluorescent, side channel, partial curve] | –
46 | O=C(/C=C/c1ccc([N+](=O)[O-])cc1)Nc1cccc(C(=O)Nc2ccccc2C(=O)O)c1 | inconclusive: 14.1 µM [quencher, side channel, partial curve] | –
47 | O=C(Cc1ccccc1)N/N=C/c1ccc([N+](=O)[O-])s1 | inconclusive: 20 µM [quencher, side channel, partial curve] | –
48 | CCCCOc1nc2ccccc2nc1C(C#N)S(=O)(=O)c1ccccc1 (configuration not stated) | inconclusive: 25.1 µM [quencher, side channel, partial curve] | –
49 | Cc1ccccc1C(=O)/C=C1/SCC(=O)N1C | – | inactive: 4.05%
50 | COc1ccccc1N1C(=O)CC(Sc2ccccc2N)C1=O (configuration not stated) | inconclusive: 31.6 µM [inhibitor, single point] | –
51 | COc1ccc(CNCC(O)(c2ccc(Cl)cc2)c2ccc(Cl)cc2)cc1OC | inconclusive: 11.2 µM [inhibitor, partial curve] | –
52 | COc1ccc(C(=O)Nc2ccc(OCc3ccccc3)cc2)cc1[N+](=O)[O-] | inconclusive: 8.91 µM [quencher, side channel, partial curve] | –
53 | COc1ccc2oc(C(=O)OCC(=O)Nc3ccccc3)c(C)c2c1 | inconclusive: 25.1 µM [quencher, side channel, single point] | –
54 | O=c1oc(/C=C/c2ccc([N+](=O)[O-])s2)nc2ccccc12 | – | inactive: 15.7%
55 | CC1CCN(C(=O)COc2cccc3c2CCN(Cc2ccccc2)C3=O)CC1 | inconclusive: 7.94 µM [fluorescent, side channel, partial curve, poor fit] | –
56 | C=CCn1c(SCCOc2ccc(OC)cc2)nnc1C(NC(=O)c1ccc(OC)cc1)C(C)C (configuration not stated) | inconclusive: 8.91 µM [fluorescent, side channel, partial curve] | –
57 | CC(C)Cn1c(=S)[nH]c2cc(Cl)ccc21 | inconclusive: 39.8 µM [inhibitor, single point] | –
